In the supplement of paper PMC12217912:
This is one part of the list. Sequences were assembled here from the parent chain. Inactive controls read about 0.05.

B1: TEV protease; numbered along this chain (parent)
chain: MGESLFKGPRDYNPISSSICHLTNESDGHTTSLYGIGFGPFIITNKHLFRRNNGTLVVQSLHGVFKVKDTTTLQQHLVDGRDMIIIRMPKDFPPFPQKLKFREPQREERICLVTTNFQTKSMSSMVSDTSCTFPSGDGIFWKHWIQTKDGQCGSPLVSTRDGFIVGIHSASNFTNTNNYFTSVPKNFMELLTNQEAQQWVSGWRLNADSVLWGGHKVFMVKPEEPFQPVKEATQL

Variants of: B1
Test: raw area under fraction-flipped curve 0-4 h after induction (AUC4h, not background-subtracted), DNA-recorder readout of cleavage of the substrate (dimensionless); higher = more cleavage of the substrate by the protease variant
Details: temperature: 34 °C; time window: 0-4 h after rhamnose induction
Experimental: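 In vivo DNA recorder in E. coli TOP10(DE3) ΔrhaA at 34 °C. Each TEVp single-site mutant (parent TEVp 0) is paired with a single-site variant of the 7-mer TEVs (canonical ENLYFQ|S). The substrate sits between flexible linkers in a Bxb1-sfGFP-TEVs-SsrA fusion, so cleavage stabilises Bxb1 and speeds flipping of a recombination array, read by NGS. The value is the raw area under the fraction-flipped curve over 0-4 h after rhamnose induction (AUC4h), with ≥20 reads per time point. It is not background-subtracted; inactive controls average about 0.047.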
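Also: Bxb1 expression induced with 0.2% (w/v) L-rhamnose at OD600 near 0.5, cultures sampled hourly, flipped fraction per protease–substrate barcode pair counted by paired-end Illumina sequencing.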

Row | Variant | area with substrate EALYFQS | area with substrate ECLYFQS | area with substrate EDLYFQS | area with substrate EELYFQS | area with substrate EFLYFQS | area with substrate EGLYFQS | area with substrate EILYFQS | area with substrate ELLYFQS | area with substrate EQLYFQS | area with substrate ERLYFQS | area with substrate ESLYFQS | area with substrate EVLYFQS | area with substrate EWLYFQS | area with substrate EHLYFQS | area with substrate EKLYFQS | area with substrate EPLYFQS | area with substrate ETLYFQS | area with substrate EMLYFQS | area with substrate EYLYFQS
1 | W144A | 0.112 | 0.0736 | 0.162 | 0.143 | 0.106 | 0.095 | 0.0891 | 0.099 | 0.0944 | 0.0802 | 0.101 | 0.0878 | 0.0958 | – | – | – | – | – | –
2 | W144I | 0.0897 | 0.0834 | – | 0.0921 | – | 0.075 | – | 0.0836 | 0.103 | – | 0.0874 | 0.0887 | – | 0.0791 | 0.082 | 0.0971 | 0.136 | – | –
3 | W144G | 0.0862 | – | – | 0.1 | – | – | 0.073 | 0.0714 | – | 0.0897 | 0.0825 | 0.0802 | 0.102 | 0.0847 | 0.0844 | 0.0629 | – | 0.103 | 0.103
4 | W144D | 0.0887 | 0.0823 | – | 0.0856 | 0.0843 | 0.0806 | 0.075 | 0.0721 | 0.081 | 0.0951 | 0.0855 | – | 0.0891 | 0.0756 | 0.0835 | 0.0633 | – | 0.086 | –
5 | E108Q | 0.0545 | – | 0.0965 | 0.087 | – | 0.0714 | 0.0668 | – | – | 0.0357 | 0.0686 | 0.0914 | 0.0709 | – | 0.0903 | – | 0.0588 | 0.07 | –
6 | S123W | 0.106 | 0.116 | 0.113 | 0.127 | 0.137 | 0.102 | 0.1 | 0.127 | 0.121 | 0.105 | 0.102 | 0.0854 | 0.0817 | 0.114 | 0.117 | 0.133 | 0.106 | 0.0973 | 0.134
7 | L112A | 0.0847 | 0.0832 | 0.094 | 0.0914 | – | 0.0969 | 0.0794 | – | 0.0899 | 0.0818 | 0.0911 | 0.0631 | 0.08 | 0.0763 | 0.0793 | 0.1 | 0.104 | 0.104 | 0.0748
8 | L112D | 0.0589 | – | 0.0455 | 0.0485 | 0.0574 | – | 0.0667 | 0.0506 | 0.0539 | 0.0578 | 0.0534 | – | – | – | 0.0589 | 0.061 | 0.0657 | 0.0379 | –
9 | L112M | 0.105 | 0.104 | 0.132 | 0.138 | 0.0833 | – | 0.0908 | 0.101 | 0.0908 | – | – | – | 0.0979 | 0.121 | – | 0.135 | – | – | –
10 | L112T | 0.0744 | 0.062 | – | 0.0773 | 0.0863 | – | 0.0507 | 0.0776 | 0.0695 | 0.0846 | 0.0707 | 0.0633 | – | 0.0694 | 0.068 | 0.0911 | 0.0757 | – | –
11 | L112V | 0.0964 | 0.118 | – | – | 0.0883 | – | 0.101 | 0.0566 | 0.0922 | 0.0996 | 0.0788 | 0.0914 | – | – | 0.114 | 0.0985 | – | – | –
12 | L112K | 0.134 | 0.111 | 0.122 | 0.112 | – | – | 0.106 | 0.0699 | 0.101 | 0.0959 | 0.0911 | 0.0879 | 0.124 | 0.104 | 0.125 | 0.118 | 0.102 | 0.168 | 0.0639
13 | L112G | 0.0675 | – | 0.0824 | 0.0728 | – | 0.0696 | 0.0664 | 0.0511 | 0.0758 | – | 0.0641 | 0.032 | 0.0436 | 0.0689 | 0.074 | – | 0.0616 | – | –
14 | K120C | 0.112 | 0.0563 | – | 0.101 | – | – | 0.0993 | – | – | 0.0909 | 0.0999 | 0.0919 | 0.081 | 0.0816 | 0.0967 | 0.114 | 0.107 | 0.103 | –
15 | K120A | 0.154 | – | – | 0.126 | – | 0.0959 | 0.0894 | 0.0826 | 0.102 | – | 0.0977 | 0.103 | – | – | 0.111 | – | 0.106 | 0.134 | –
16 | K120I | 0.0786 | 0.0818 | – | 0.109 | – | – | 0.0927 | – | 0.129 | 0.116 | 0.0871 | – | – | 0.0839 | 0.0905 | 0.126 | 0.0993 | 0.107 | –
17 | K120V | 0.11 | 0.0871 | 0.103 | – | – | – | 0.112 | 0.0887 | 0.105 | 0.0988 | 0.103 | 0.0807 | 0.0772 | – | – | 0.129 | – | 0.0862 | –
18 | K120D | 0.108 | 0.104 | 0.135 | – | – | 0.0888 | 0.082 | – | 0.124 | – | 0.0574 | 0.0834 | – | 0.0732 | 0.0837 | 0.105 | – | 0.0979 | –
19 | S121Q | 0.145 | 0.11 | 0.112 | 0.114 | 0.107 | 0.119 | 0.103 | 0.0908 | 0.122 | 0.104 | 0.101 | 0.0945 | – | 0.12 | 0.116 | 0.104 | 0.102 | – | 0.104
20 | R106G | 0.0977 | – | 0.148 | – | – | – | – | – | 0.136 | – | 0.0929 | – | – | – | 0.0849 | – | – | – | –
21 | R106K | 0.123 | 0.101 | – | 0.133 | 0.105 | 0.106 | 0.101 | – | 0.14 | – | 0.112 | – | 0.126 | – | – | 0.112 | – | – | 0.0946
22 | R106Q | 0.108 | 0.109 | 0.117 | 0.129 | 0.0863 | 0.0213 | 0.0893 | 0.111 | 0.122 | 0.102 | 0.101 | 0.0935 | 0.0901 | 0.101 | 0.109 | 0.122 | 0.094 | – | 0.103
23 | R102I | 0.0635 | 0.0459 | 0.0417 | 0.0524 | 0.0683 | 0.0519 | 0.0484 | 0.0526 | 0.0496 | 0.0458 | 0.0531 | 0.0556 | 0.0612 | 0.0541 | 0.0419 | 0.0503 | 0.0358 | 0.0595 | –
24 | R102G | 0.0697 | 0.0423 | 0.0596 | 0.0419 | 0.0682 | 0.0645 | 0.0459 | 0.0527 | – | 0.0637 | 0.0468 | 0.0571 | 0.0533 | 0.0359 | 0.0585 | 0.0721 | 0.0717 | – | –
25 | S124K | 0.122 | 0.11 | 0.132 | 0.124 | 0.106 | 0.0925 | 0.0911 | 0.0893 | 0.142 | 0.092 | 0.105 | 0.0975 | 0.103 | 0.109 | 0.164 | 0.112 | 0.134 | 0.114 | –
